In patent publication US20250002557A1 (SUZHOU LIGHT FERRY BIOMED, published 2025):
Values joined by “and” are separate entries in the source; they are usually repeats but may differ in a detail not shown here. Identical values can stand only once.

Experiments:
PDGF-AB = target: T1, PDGF-AB (UniProt P04085 87-211; P01127 82-190); assay: SPR, PDGF coupled to CM5 chip, trap in flow
T1 construct: Bought reagent
From the text: (§1) Nevertheless, it was found in the preliminary detection experiments that PDGF family molecules (purchased from R&D Systems Inc.) were prone to produce non-specific binding in the chip, resulting in a pseudo-elevation in measured values, such that the detection could not be completed. Therefore, PDGF-AA, PDGF-AB, PDGF-BB and PDGF-CC molecules were separately loaded through a coupling reaction on a CM5 chip, followed by influx of the recombinant receptor molecules, thus effectively eliminating the impact of non-specific binding on affinity determination.

PDGF-AA = target: T2, PDGF-AA (UniProt P04085 87-211); assay: SPR, PDGF coupled to CM5 chip, trap in flow
T2 construct: Bought reagent
From the text: as §1

PDGF-CC = target: T3, PDGF-CC (UniProt Q9NRA1 235-345); assay: SPR, PDGF coupled to CM5 chip, trap in flow
Chain of PDGF-CC (Q9NRA1 235-345): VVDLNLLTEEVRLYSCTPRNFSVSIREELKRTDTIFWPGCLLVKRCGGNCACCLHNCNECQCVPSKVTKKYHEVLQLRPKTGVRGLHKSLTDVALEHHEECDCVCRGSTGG
T3 construct: Bought reagent
From the text: as §1

VEGF-C [1] = target: T4, VEGF-C (UniProt P49767 112-227, limits assumed); assay: ELISA, coated VEGF-C, anti-human Fc-HRP
T4 construct: Bought reagent
T4 sequence (looked up): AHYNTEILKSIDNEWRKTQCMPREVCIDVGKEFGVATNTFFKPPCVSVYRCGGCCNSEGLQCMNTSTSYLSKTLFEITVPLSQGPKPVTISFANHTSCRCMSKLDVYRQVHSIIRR

VEGF-D [2] = target: T5, VEGF-D (UniProt O43915 89-205, limits assumed); assay: blocking ELISA, VEGF-D-His to coated VEGFR2-Fc; row head prints uM, ng/ml row implies nM
T5 construct: Bought reagent
T5 sequence (looked up): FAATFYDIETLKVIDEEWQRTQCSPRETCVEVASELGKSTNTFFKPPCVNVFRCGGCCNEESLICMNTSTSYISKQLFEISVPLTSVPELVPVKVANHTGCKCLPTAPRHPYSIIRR

VEGF-A 121 [3] = target: T6, VEGF-A 121 (UniProt P15692-9 27-147); assay: blocking ELISA, VEGF-A 121-His to coated VEGFR2-Fc
T6 construct: Bought reagent
T6 sequence (looked up): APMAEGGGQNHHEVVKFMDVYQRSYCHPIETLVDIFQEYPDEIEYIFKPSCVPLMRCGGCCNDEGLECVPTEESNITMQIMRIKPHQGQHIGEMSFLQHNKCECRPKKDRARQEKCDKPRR

VEGF-C [4] = target: T4, VEGF-C; assay: blocking ELISA, VEGF-C-His to coated VEGFR3-Fc
VEGF-A 121 [5] = target: T6, VEGF-A 121; assay: ELISA, coated VEGF-A 121, anti-human Fc-HRP
VEGF-A165 [6] = target: T7, VEGF-A165 (UniProt P15692-4 27-191); assay: ELISA, coated VEGF-A 165, anti-human Fc-HRP
T7 construct: Bought reagent
T7 sequence (looked up): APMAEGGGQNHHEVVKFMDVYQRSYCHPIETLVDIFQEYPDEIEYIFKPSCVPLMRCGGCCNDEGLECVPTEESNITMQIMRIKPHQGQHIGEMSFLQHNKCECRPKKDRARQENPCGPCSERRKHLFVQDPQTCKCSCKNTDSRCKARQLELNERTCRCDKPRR

VEGF-D [7] = target: T5, VEGF-D; assay: blocking ELISA, VEGF-D-His to coated VEGFR3-Fc
VEGF-C [8] = target: T4, VEGF-C; assay: blocking ELISA, VEGF-C-His to coated VEGFR3-Fc; row head prints uM, ng/ml row implies nM
PDGF-BB = target: T8, PDGF-BB (UniProt P01127 82-190); assay: SPR, PDGF coupled to CM5 chip, trap in flow; row label printed PDGF-BR
Chain of PDGF-BB (P01127 82-190): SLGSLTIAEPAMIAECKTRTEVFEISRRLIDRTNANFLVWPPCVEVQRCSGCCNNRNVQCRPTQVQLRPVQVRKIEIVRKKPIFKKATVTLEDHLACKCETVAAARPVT
T8 construct: Bought reagent
From the text: as §1

VEGF-D [9] = target: T5, VEGF-D; assay: blocking ELISA, VEGF-D-His to coated VEGFR2-Fc
VEGF-A165 [10] = target: T7, VEGF-A165; assay: blocking ELISA, VEGF-A 165-His to coated VEGFR2-Fc
VEGF-D [11] = target: T5, VEGF-D; assay: SPR Biacore T200, trap captured on Protein A chip, antigen in flow
[12] = target: T9, VEGF-A (isoform not given) (UniProt P15692-4 27-191, limits assumed); assay: as above
T9 construct: May be the same reagent as VEGF-A165
T9 sequence (looked up): T7 sequence (looked up)

VEGF-C [13] = target: T4, VEGF-C; assay: as above
VEGF-A165 [14] = target: T7, VEGF-A165; assay: blocking ELISA, VEGF-A 165-His to coated VEGFR2-Fc; row head prints uM, ng/ml row implies nM
VEGF-C [15] = target: T4, VEGF-C; assay: blocking ELISA, VEGF-C-His to coated VEGFR2-Fc

Chain of PDGF-AB (P01127 82-190, chain 2 of 2, other chains not shown): as the sequence (P01127 82-190) above

B1: LFV-E Recombinant receptor molecule (Fc fusion)
chain: GLPSVSLDLPRLSIQKDILTIKANTTLQITCRGQRDLDWLWPNNQSGSEQRVEVTECSDGLFCKTLTIPKVIGNDTGAYKCFYRETDLASVIYVYVQDYRSPFIASVSDQHGVVYITENKNKTVVIPCLGSISNLNVSLCARYPEKRFVPDGNRISWDSKKGFTIPSYMISYAGMVFCEAKINDESYQSIMYIVVVVGYRIYDVVLSPSHGIELSVGEKLVLNCTARTELNVGIDFNWEYPSSKHQHKKLVNRDLKTQSGSEMKKFLSTLTIDGVTRSDQGLYTCAASSGLMTKKNSTFVRVHEKGPG[here human IgG1 Fc without letters]
Binder B1 has a Kd (PDGF-AB) of 4.29 nM, a koff (PDGF-AB) of 0.000201 s⁻¹ and a kon (PDGF-AB) of 46800 M⁻¹ s⁻¹. It also gave a Kd (PDGF-AA) of 0.958 nM, a koff (PDGF-AA) of 0.000134 s⁻¹ and a kon (PDGF-AA) of 140000 M⁻¹ s⁻¹. The Kd (PDGF-CC) was 46.1 nM, the EC50 (VEGF-C [1]) was 0.71 nM and 0.0852 µg/mL and the EC50 (VEGF-D [2]) was 420 nM. For the same binder, the EC50 (VEGF-A 121 [3]) was 1.28 µg/mL and 10.7 nM, the EC50 (VEGF-C [4]) was 0.136 µg/mL and the EC50 (VEGF-A 121 [5]) was 0.601 nM and 0.0721 µg/mL. The EC50 (VEGF-A165 [6]) was 0.0212 µg/mL and 0.177 nM, the EC50 (VEGF-D [7]) was 0.179 µg/mL and 1.5 nM and the EC50 (VEGF-C [8]) was 1130 nM. The Kd (PDGF-BB) was 5.33 nM, the koff (PDGF-BB) was 0.000311 s⁻¹ and the kon (PDGF-BB) was 58300 M⁻¹ s⁻¹. It also gave an EC50 (VEGF-D [9]) of 0.0505 µg/mL, an EC50 (VEGF-A165 [10]) of 1.11 µg/mL and a Kd (VEGF-D [11]) of 14.8 nM. The koff (VEGF-D [11]) was 8.67e-05 s⁻¹, the kon (VEGF-D [11]) was 5860 M⁻¹ s⁻¹ and the Kd [12] was 0.041 nM. The koff [12] was 0.000123 s⁻¹, the kon [12] was 2.99e+06 M⁻¹ s⁻¹ and the Kd (VEGF-C [13]) was 0.0405 nM. For the same binder, the koff (VEGF-C [13]) was 3.8e-05 s⁻¹, the kon (VEGF-C [13]) was 938000 M⁻¹ s⁻¹ and the EC50 (VEGF-A165 [14]) was 9260 nM. For the same binder, the EC50 (VEGF-C [15]) was 2.27 µg/mL and 19 nM.
